Results reported in the supplement of paper PMC8728848.
The other results are listed elsewhere or left out.

Legend:
Test in all cases: glycan array binding signal (z-score within array); higher = stronger binding
Settings in all cases: glycan notation: IUPAC condensed, linker removed
[1] = biological target: Glc(b1-2)Glc(b1-2)Glc(b1-2)Glc(b1-2)Glc(b1-2)Glc(b1-2)Glc(b1-2)Glc(b1-2)Glc(b1-2)Glc(b1-2)Glc
In short: (§1)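 From the Consortium for Functional Glycomics database, 3228 arrays were curated, keeping only those whose protein sequence was available. Binding is given as a within-array Z-score averaged across arrays sharing a protein sequence and across linkers. Negative Z-scores can be read as non-binding.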

[2] = biological target: Glc(b1-2)Glc(b1-2)Glc(b1-2)Glc(b1-2)Glc(b1-2)Glc(b1-2)Glc(b1-2)Glc(b1-2)Glc(b1-2)Glc(b1-2)Glc(b1-2)Glc
In short: as §1

[3] = biological target: Glc(b1-2)Glc(b1-2)Glc(b1-2)Glc(b1-2)Glc(b1-2)Glc(b1-2)Glc(b1-2)Glc(b1-2)Glc(b1-2)Glc(b1-2)Glc(b1-2)Glc(b1-2)Glc
In short: as §1

Glc(b1-3)Glc = biological target: Glc(b1-3)Glc
In short: as §1

Glc(b1-3)Glc(b1-3)Glc = biological target: Glc(b1-3)Glc(b1-3)Glc
In short: as §1

[4] = biological target: Glc(b1-3)Glc(b1-3)Glc(b1-3)Glc
In short: as §1

[5] = biological target: Glc(b1-3)Glc(b1-3)Glc(b1-3)Glc(b1-3)Glc
In short: as §1

[6] = biological target: Glc(b1-3)Glc(b1-3)Glc(b1-3)Glc(b1-3)Glc(b1-3)Glc
In short: as §1

[7] = biological target: Glc(b1-3)Glc(b1-3)Glc(b1-3)Glc(b1-3)Glc(b1-3)Glc(b1-3)Glc
In short: as §1

[8] = biological target: Glc(b1-3)Glc(b1-3)Glc(b1-3)Glc(b1-3)Glc(b1-3)Glc(b1-3)Glc(b1-3)Glc
In short: as §1

[9] = biological target: Glc(b1-3)Glc(b1-3)Glc(b1-3)Glc(b1-3)Glc(b1-3)Glc(b1-3)Glc(b1-3)Glc(b1-3)Glc
In short: as §1

[10] = biological target: Glc(b1-3)Glc(b1-3)Glc(b1-3)Glc(b1-3)Glc(b1-3)Glc(b1-3)Glc(b1-3)Glc(b1-3)Glc(b1-3)Glc
In short: as §1

[11] = biological target: Glc(b1-3)Glc(b1-3)Glc(b1-3)Glc(b1-3)Glc(b1-3)Glc(b1-3)Glc(b1-3)Glc(b1-3)Glc(b1-3)Glc(b1-3)Glc
In short: as §1

[12] = biological target: Glc(b1-3)Glc(b1-3)Glc(b1-3)Glc(b1-3)Glc(b1-3)Glc(b1-3)Glc(b1-3)Glc(b1-3)Glc(b1-3)Glc(b1-3)Glc(b1-3)Glc
In short: as §1

[13] = biological target: Glc(b1-3)Glc(b1-3)Glc(b1-3)Glc(b1-3)Glc(b1-3)Glc(b1-3)Glc(b1-3)Glc(b1-3)Glc(b1-3)Glc(b1-3)Glc(b1-3)Glc(b1-3)Glc
In short: as §1

[14] = biological target: Glc(b1-3)Glc(b1-3)Glc(b1-3)Glc(b1-3)Glc(b1-3)Glc(b1-3)Glc(b1-3)[Glc(b1-6)]Glc(b1-3)Glc
In short: as §1

[15] = biological target: Glc(b1-3)Glc(b1-3)Glc(b1-3)Glc(b1-3)Glc(b1-3)Glc(b1-3)[Glc(b1-6)]Glc(b1-3)Glc(b1-3)Glc
In short: as §1

[16] = biological target: Glc(b1-3)Glc(b1-3)Glc(b1-3)Glc(b1-3)[Glc(b1-6)]Glc(b1-3)Glc(b1-3)Glc(b1-3)Glc(b1-3)Glc
In short: as §1

[17] = biological target: Glc(b1-3)Glc(b1-3)Glc(b1-3)[Glc(b1-6)]Glc(b1-3)Glc(b1-3)Glc(b1-3)Glc(b1-3)[Glc(b1-6)]Glc(b1-3)Glc
In short: as §1

[18] = biological target: Glc(b1-3)Glc(b1-3)[Glc(b1-6)]Glc(b1-3)Glc(b1-3)Glc(b1-3)Glc(b1-3)Glc(b1-3)Glc(b1-3)Glc
In short: as §1

Glc(b1-3)Glc(b1-4)Glc = biological target: Glc(b1-3)Glc(b1-4)Glc
In short: as §1

[19] = biological target: Glc(b1-3)Glc(b1-4)Glc(b1-4)Glc
In short: as §1

[20] = biological target: Glc(b1-3)Glc(b1-4)Glc(b1-6)Glc(b1-4)Glc
In short: as §1

[21] = biological target: Glc(b1-3)[Glc(b1-6)]Glc(a1-3)Glc(b1-3)[Glc(b1-6)]Glc
In short: as §1

[22] = biological target: Glc(b1-3)[Glc(b1-6)]Glc(b1-3)Glc(b1-3)Glc(b1-3)Glc(b1-3)Glc(b1-3)Glc(b1-3)Glc
In short: as §1

Glc(b1-4)Glc = biological target: Glc(b1-4)Glc
In short: as §1

Glc(b1-4)Glc(b1-3)Glc = biological target: Glc(b1-4)Glc(b1-3)Glc
In short: as §1

[23] = biological target: Glc(b1-4)Glc(b1-3)Glc(b1-4)Glc
In short: as §1

Glc(b1-4)Glc(b1-4)Glc = biological target: Glc(b1-4)Glc(b1-4)Glc
In short: as §1

B1: Unk16A (Cellvibrio mixtus), Q336L6 (protein)
chain: VAYNTTGASSSAASSSAPSSASSSSSSAAPVLLSQGRPVTASSNFQPAANAVDGNGGTRWESTHGVSPSWIMVDLGSSKNLSQVIIDWEAANAANYLVQASNNGMSWTTLKIITTGAFGDRTDTHSVAGNYRYVRIYATARSAGNQWGYSIWELKITGN
glycan array binding signal (z-score) [1]: 2.77
glycan array binding signal (z-score) [2]: 2.06
glycan array binding signal (z-score) [3]: 2.47
glycan array binding signal (z-score) (Glc(b1-3)Glc): -0.518
glycan array binding signal (z-score) (Glc(b1-3)Glc(b1-3)Glc): -0.3
glycan array binding signal (z-score) [4]: 0.752
glycan array binding signal (z-score) [5]: 0.669
glycan array binding signal (z-score) [6]: 0.423
glycan array binding signal (z-score) [7]: 0.237
glycan array binding signal (z-score) [8]: 1.73
glycan array binding signal (z-score) [9]: 0.996
glycan array binding signal (z-score) [10]: 0.922
glycan array binding signal (z-score) [11]: 0.917
glycan array binding signal (z-score) [12]: 1.49
glycan array binding signal (z-score) [13]: 0.753
glycan array binding signal (z-score) [14]: 1.06
glycan array binding signal (z-score) [15]: 0.531
glycan array binding signal (z-score) [16]: 0.922
glycan array binding signal (z-score) [17]: 0.746
glycan array binding signal (z-score) [18]: 1.63
glycan array binding signal (z-score) (Glc(b1-3)Glc(b1-4)Glc): -0.256
glycan array binding signal (z-score) [19]: -0.094
glycan array binding signal (z-score) [20]: 0.467
glycan array binding signal (z-score) [21]: 4.32
glycan array binding signal (z-score) [22]: 0.735
glycan array binding signal (z-score) (Glc(b1-4)Glc): -0.546
glycan array binding signal (z-score) (Glc(b1-4)Glc(b1-3)Glc): -0.176
glycan array binding signal (z-score) [23]: -0.005
glycan array binding signal (z-score) (Glc(b1-4)Glc(b1-4)Glc): -0.37
